# Whole data set: some 33,000 sequences, median “E-score (-0.5 to 0.5)” near -0.054, cut for the highest 2% near 0.39. The list shows a part of the results.
# Biological target: Ylr278c (UniProt Q05854)
# Assay: PBM E-score (8-mer binding enrichment) (E-score (-0.5 to 0.5)); higher = stronger / more preferred TF binding; most listed sequences are background and not binding sites
# Settings: protein concentration: 200 nM; construct: GST-DNA-binding domain
# Description: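 Universal 'all 10-mer' protein binding microarrays (Agilent AMADID 015681) probed with GST-tagged S. cerevisiae TFs (full-length or DBD) made by in vitro transcription/translation (PURExpress), about 100-200 nM. Bound TF was detected with fluorescent anti-GST. Each ungapped 8-mer (which stands for itself and its reverse complement) is scored by the PBM enrichment score (E-score), a modified Wilcoxon-Mann-Whitney statistic from -0.5 to +0.5, computed with the Universal PBM Analysis Suite. Scale: above 0.35 generally sequence-specific binding.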
row,Sequence,PBM E-score
1,CGTGCATA,-0.0925
2,GACATCGC,0.0737
3,ATAAGGTG,-0.0571
4,ATGGTCCA,-0.199
5,TCGGACAA,0.434
6,GAATTATC,-0.137
7,CACAAAAC,0.0121
8,CCCCATCC,-0.0388
9,CTCGTATC,-0.115
10,CAACAGTC,-0.0332
11,CGGTTTCC,0.304
12,AATCACGA,-0.0732
13,CCCTAGGA,-0.137
14,AGGTACAT,-0.235
15,CCGAAGAA,0.292
16,ACGAACCC,0.0908
17,TATACTCA,-0.185
18,ATAATTTC,0.097
19,GCTCCTCA,-0.0972
20,AGTCAGTA,0.00611
21,GCCAAACC,0.119
22,ATCCTATC,0.0564
23,GTGAGACA,0.0187
24,ATAGGAAA,0.0106
25,AGTCCTTC,-0.128

row,Sequence,PBM E-score
1,CGATGCCG,0.285
2,CCCATCCA,-0.119
3,CAAAGCAA,-0.0505
4,CGAGCGGC,0.279
5,GCCGGCCA,0.359
6,ACTCAACC,-0.0547
7,AGTCAGTC,-0.236
8,GAGCTAAC,0.15
9,AATTCCGG,0.48
10,ACCCCAAT,-0.204
11,CTAGGACC,-0.0226
12,AGTAGAGA,-0.193
13,CCCGCGTA,0.196
14,TACCGGAA,0.397
15,CTCGGTAC,0.0123
16,CCCGACAA,0.281
17,GCGCTCAC,-0.0623
18,ACAATGGG,0.113
19,CGTCTGTA,-0.0421
20,AGTATAAA,0.16
21,GAGCGGGC,0.188
22,AGGATGAA,-0.186
23,ATGGGCAC,-0.12
24,AAAGCTCA,-0.244
25,AGACAATC,0.0499

row,Sequence,PBM E-score
1,GAAACCCA,0.13
2,CTTAACAA,0.0368
3,AGTCCCGG,0.362
4,TGAGACCA,-0.285
5,ATCTGTTG,-0.184
6,AGCTGCGG,0.212
7,GCGCTATA,-0.0554
8,CACGTTAA,-0.238
9,ACAGATCG,-0.0232
10,CTGCACGC,-0.159
11,AAGCCTAG,-0.0513
12,ACAAGAAA,0.083
13,ACCAGGAC,-0.0907
14,AGGCGAGA,-0.193
15,AGAATGAG,-0.136
16,CGTAGGAC,-0.0304
17,GACACAAA,0.217
18,CCTTTCTA,-0.0629
19,CGGAATCC,0.376
20,CTCGTGCA,-0.165
21,AATCCATA,-0.0527
22,CGCGATAC,0.0887
23,AGAATCAC,0.077
24,CCACGTCG,-0.036
25,GCTTACTA,-0.119

row,Sequence,PBM E-score
1,ACAACGGG,0.118
2,CGACTAGA,-0.116
3,CCAGGCTA,-0.304
4,ACTCACCG,0.0323
5,CATTTGAC,-0.0149
6,CCGACGGA,0.425
7,GTAGGACA,0.0198
8,CTTGAGCA,-0.251
9,ACGGCAAT,0.214
10,CAGGCTCG,-0.0285
11,TCACGTGA,0.0614
12,GTCCCAAA,-0.175
13,CTAACTAC,0.00829
14,GCGACTCA,-0.145
15,GGAACAAA,0.135
16,GAAAATTA,0.19
17,AAGGAACG,-0.0723
18,ATCATACG,-0.0792
19,AGCCGCCG,0.313
20,ATACTGAA,-0.249
21,AACACCTG,-0.151
22,ATACGAGC,-0.0146
23,CATACTGG,-0.0228
24,GTTCTGTA,-0.19
25,ACTTCAGG,-0.0351

row,Sequence,PBM E-score
1,AGAACATA,0.17
2,CAACGCCA,-0.167
3,TTCCCAAA,-0.114
4,CATGCTGA,-0.106
5,ATCCGGCC,0.399
6,CTTGACAC,-0.193
7,GCCCTATA,-0.126
8,TAAAAAGA,-0.0968
9,ACGTGCGC,-0.0167
10,ACGACGAC,-0.169
11,GAACATCA,-0.0903
12,GCTCGTCC,0.0498
13,ATGTGTAA,-0.0901
14,CAGTGCGC,-0.0568
15,AGGCTATG,-0.145
16,CGTGATTA,-0.0095
17,GAGTTAAC,-0.104
18,CCAGGCGC,-0.0509
19,CTTAACGC,-0.17
20,ACCCCAGG,-0.191
21,CTGGAACC,-0.175
22,AACCAGCT,-0.268
23,AGTCAGAT,-0.137
24,CGTTGACC,-0.182
25,GAAGCATC,-0.17

row,Sequence,PBM E-score
1,CCAATGGA,-0.0471
2,CAGCTGGC,0.158
3,GCTTATAA,-0.0843
4,ACCGCAGA,-0.158
5,TCTCGAGA,-0.061
6,AGGTCTAT,-0.141
7,AGATCAAT,-0.117
8,CTATATGC,-0.0286
9,CGACGCTA,0.0184
10,AGCCGAGG,0.116
11,AATTTGAA,0.144
12,GATCTAGC,-0.154
13,CCGATAAG,0.228
14,ACATGTTA,-0.0688
15,CTAGTATC,-0.00044
16,AACATACT,-0.0198
17,CATAAGCA,-0.14
18,TAACACCA,-0.217
19,AGCCTTAG,-0.289
20,AGGTGTGC,-0.183
21,ACATTATG,-0.0505
22,GATTGAAA,0.0649
23,CCCGTGCA,0.0714
24,CCTCAGAG,-0.176
25,ACGACAGT,-0.201

row,Sequence,PBM E-score
1,AATACTCA,-0.0606
2,TACGCGCA,0.175
3,AGTCTGGC,-0.217
4,CGAACATC,0.137
5,GTCCCAGA,-0.235
6,CTCACGAC,-0.273
7,CCCAAAAG,-0.00836
8,AAGGCTGG,-0.364
9,AGTGGAGA,-0.11
10,ATAGTGGC,-0.179
11,ATAGGGGG,-0.138
12,TAACCGGA,0.431
13,CACTACAC,-0.121
14,CGTTTGGA,-0.0681
15,CTTTGGCC,-0.00842
16,CGGGCATA,0.119
17,AAGCTGCG,-0.00014
18,AATGAGAC,-0.206
19,TCAACCAA,-0.17
20,ACCTTGAT,-0.0349
21,TGATGTAA,-0.0886
22,GTGGTTCA,-0.141
23,GAGTAAAC,0.0397
24,ATTACGTA,0.00229
25,GTTAGAAC,-0.0392

row,Sequence,PBM E-score
1,AGCTCGGG,0.141
2,AATCAGTA,-0.157
3,GCGATGTA,0.00603
4,AGTACCAG,-0.119
5,AGTCTGTG,-0.268
6,GGACGTGA,-0.103
7,ACCTCTGC,-0.209
8,AATGCTTC,0.0555
9,CAAACCTA,-0.144
10,AGCATTCC,0.0817
11,CTTTTTTA,-0.128
12,CAACATAG,-0.203
13,ACCTACTA,-0.0586
14,TTACCGAA,0.172
15,TGATATCA,-0.294
16,ATTATGCG,0.199
17,ATAGGATC,-0.118
18,ACTGTGAG,-0.144
19,CTATCACA,-0.125
20,GCTTACCA,-0.178
21,CCAGGGGG,-0.324
22,CCGGGGTA,0.408
23,AATGTGGG,0.0131
24,ACTGGCCC,-0.0769
25,GCGAACAA,0.0778

row,Sequence,PBM E-score
1,GCGTCTCA,-0.184
2,ACCGCCCA,0.154
3,AAGAGACA,-0.0194
4,AACAGGGC,-0.152
5,CTCAAATC,-0.153
6,AACCAAAG,-0.261
7,CCACGGCC,0.079
8,GATCCAGC,0.0556
9,ATTCTGGC,-0.138
10,AAAGAAAC,0.08
11,AAAAATCC,0.272
12,ATGAGCAC,-0.187
13,ACGTGAAG,-0.271
14,CCACGTAC,-0.165
15,CAGCGAGA,-0.124
16,AGCTATAA,-0.206
17,CGGGGAAG,0.33
18,CCAAGACC,0.026
19,ATCGTTCA,-0.0863
